Read counts are not given, so values of variants with three or more changes are uncertain.

To fix the notation:
B1: CPEB3 Ribozyme (parent)
chain: UAACAGGGGGCCACAGCAGAAGCGUUCACGUCGCAGCCCCUGUCAGAUUCUGGUGAAUCUGCGAAUUCUGCUGUAUAUCUC

The data set covers variants of B1. Briefly: self-cleavage, relative activity (ratio to wild type); higher = more cleavage; in vitro, sequencing. Summed up: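 Relative activity was defined as the cleaved/total read fraction for a variant divided by the same fraction for the unmutated ribozyme. CPEB3 self-cleaving ribozyme libraries were made by rounds of error-prone PCR, barcoded, and transcribed in vitro with T7 RNA polymerase for 5 hours at 37°C, and cleavage ran through transcription plus a 15 min DNase I step before EDTA. Illumina sequencing of template-switched reverse transcripts gave the reads, and DNA sequencing mapped the barcodes. Averages come from three batches, using variants with at least 5 reads.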
Take A5U U51A G53U A64G U76G: the self-cleavage was 1.25.

Consider G6A A21U U69A, for which the self-cleavage is 0.06.

For the variant A5U U60G C62U, the self-cleavage came to 0.17.

Consider G6A C12U G19U U25C U78C, for which the self-cleavage turned out to be 0.05.

With G6A C12U U26G U66C U72A, the self-cleavage turned out to be 0.05.

For G6A C32G A35G U41A U54C C62U A64U, the self-cleavage amounted to 0.05.

In the case of G6A A15U A35G A45C U48C A56U, the self-cleavage worked out at 0.06.

A5U U60A U74C: the self-cleavage was 0.56.

For the variant G6A G9C A64G U72A U80A, the self-cleavage is 0.06.

With G6A G9A U31C U43C A56G U60C A64G, the self-cleavage was 0.01.

As for G6A A18U U25A U58A U74C, the self-cleavage amounted to 0.1.

G6A G9A G16A U41A A45U C71U U72G: the self-cleavage was 0.04.

Take G6A A35U U41G U66C: the self-cleavage is 0.05.

For G6A A20G A35U A77G U78C, the self-cleavage came out at 0.03.

G6A G24A A35G G42A A45G A56G A64G: the self-cleavage is 0.05.

Regarding G6A A15G U31A U72C U80C, the self-cleavage worked out at 0.09.

For the variant G6A A57G U60A, the self-cleavage was determined as 0.12.

G6A C11A A21U A35G: the self-cleavage was found to be 0.27.

Turning to G6A A13U A15C A21G A28U A45U U48C, the self-cleavage worked out at 0.03.

In the case of G6A A18G U54C, the self-cleavage is 0.23.

Turning to G6A A64G C71U A77G, the self-cleavage came out at 0.06.

Take G6A A21U C37A C38U A56U U69A: the self-cleavage came out at 0.02.

Regarding G6A A15U U26A, the self-cleavage was 0.31.

G6A A35U A45G U54A: the self-cleavage stood at 0.08.

Turning to G6A C34G U66C C71U, the self-cleavage worked out at 0.13.

Consider A5U U69C U78C, for which the self-cleavage was 0.83.

Turning to G6A A45G A64U U67C U76A, the self-cleavage stood at 0.22.

For G6A C12U G42A C50A U69A A77C U80C, the self-cleavage was found to be 0.04.

Consider G6A A47G G52A A56U U80C, for which the self-cleavage is 0.07.

For the variant G6A A13U G52A A57G U78C, the self-cleavage is 0.54.

For G6A A13G U43A U49C, the self-cleavage was 0.13.

G6A G19U A20G G30C U78C: the self-cleavage is 0.22.

As for G6A C14U A56U, the self-cleavage turned out to be 0.09.

As for G6A A28U U66C, the self-cleavage turned out to be 0.3.

For G6A A18U C29A A35G A65G, the self-cleavage came out at 0.06.

G6A A15G U26C U48C U58C: the self-cleavage came out at 0.05.

With G6A A28G A45G U51C U60A, the self-cleavage turned out to be 0.05.

For the variant G6A G19U U25C C32A U51A U80A, the self-cleavage was 0.22.

Take G6A A21G U26C A35U U41C U49C U69C: the self-cleavage was determined as 0.03.

For G6A G33U U49C U54C U66A, the self-cleavage came out at 0.14.

On to G6A C44U U60C, for which the self-cleavage came to 0.07.

As to G6A A20G G24A U78C, the self-cleavage is 0.05.

As to G6A C14A U43C C44U U49A, the self-cleavage was found to be 0.05.

G6A A28U C32A U76C: the self-cleavage turned out to be 0.06.

As for G6A A15U U69C A75G, the self-cleavage turned out to be 0.21.

Regarding G6A A13C A21U U67C U72A, the self-cleavage is 0.07.

On to G6A A28U C29U U31C U54A C71U, for which the self-cleavage is 0.19.

Turning to G6A G10A U25A A45U U54A, the self-cleavage stood at 0.05.

Consider A5U U51A A77G, for which the self-cleavage turned out to be 1.12.

For the variant G6A A13G A45U A57G, the self-cleavage worked out at 0.23.

For G6A A15G C34A U54C, the self-cleavage is 0.08.

As to G6A A28G U31A A35U A47U U72A, the self-cleavage was 0.11.

Take G6A C37U U51A U54C U72C: the self-cleavage came to 0.11.

As for G6A A45G U54A, the self-cleavage amounted to 0.48.

Turning to G6A A18U U80A, the self-cleavage stood at 0.38.

Consider G6A C23G G52C A57G G70C U78C, for which the self-cleavage turned out to be 0.08.

For the variant G6A C12U C62U, the self-cleavage turned out to be 0.06.

For the variant G6A A15G G22U C29U U41A U51G, the self-cleavage amounted to 0.3.

On to G6A A47G U60A, for which the self-cleavage was determined as 0.15.

As to A5U U60C U76C, the self-cleavage stood at 0.99.

Regarding G6A A13U U48C A65G, the self-cleavage amounted to 0.15.

For the variant A5U U54A U69C U74A U80A, the self-cleavage amounted to 1.16.

For the variant A5U U54C U76C, the self-cleavage is 1.15.

With G6A A20G A57G A65U, the self-cleavage amounted to 0.12.

Consider G6A G42A U43C A57G, for which the self-cleavage was 0.23.

On to G6A A13G U60C, for which the self-cleavage is 0.1.

On to G6A A28G A47G U58C U72A, for which the self-cleavage worked out at 0.13.

Consider G6A A13U U25A U26C A57G, for which the self-cleavage came out at 0.05.

As for G6A A45U A56G, the self-cleavage was determined as 0.18.

With G6A A21G A56U A57G, the self-cleavage amounted to 0.05.

G6A C37A U67C: the self-cleavage worked out at 0.13.

Turning to G6A A28G U41C A65G G70A, the self-cleavage came to 0.04.

Take G6A A18U U48G U49A U60C U67C: the self-cleavage was 0.05.

For G6A A28U U31A C37A A45G, the self-cleavage came out at 0.07.

In the case of G6A A28C A56U, the self-cleavage turned out to be 0.06.

G6A A28G A35C U69C C71U: the self-cleavage was found to be 0.18.

For the variant G6A A15C A18G A64G, the self-cleavage worked out at 0.48.

With G6A G33A A45C G52C A56G U66A U76A, the self-cleavage amounted to 0.03.

Consider G6A C29A U31G U49C, for which the self-cleavage came out at 0.06.

With A5U U49C U60C, the self-cleavage turned out to be 0.23.

For the variant G6A A57G U72C, the self-cleavage came to 0.33.

On to A5U U66C U78C, for which the self-cleavage turned out to be 0.27.

As for G6A A13G A15G U72A U78C, the self-cleavage amounted to 0.29.

The record behind these values is the RNAGym collection of RNA variant scans (doi:10.1093/nar/gkz1192).
